From PubChem BioAssay AID1508623 (National Center for Advancing Translational Sciences (NCATS), 2021)
The campaign covered roughly 48,000 compounds. About 450 (0.94%) were called active. Another 19% or so got no clear call; they are omitted. Calls come from the whole dose curve; as a rule, active = well fitted inhibition curve with a large enough effect; inconclusive = small, poorly fitted or top-dose-only effect; inactive = no such curve, though single readings can be large or run the other way. Some of the results follow.

Assay: Primary qHTS for Identification of Small Molecule Inhibitors of Huntingtin Promoter Activity; note: nearly all actives have a fitted effect of over 50% in size
Conditions: HEK293 HTT promoter firefly luciferase reporter (activity 0% = vehicle and -100% = no light), 24 h; series mostly up to 57.5 µM; activity change, negative = inhibition: at the top concentration
In short: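 Luminescence was read after Dual-Glo reagent and a 10 min room-temperature incubation. Values were normalized to vehicle (0% activity) and zero RLU (-100% activity). Reporter HEK293 cells had been exposed to compounds (up to 57.5 uM final) for 24 h.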

| SMILES | activity change, negative = inhibition |
| --- | --- |
| O=C(CCC1N=C2c3ccccc3N=C(SCC(=O)NCCc3ccccc3)N2C1=O)NCc1ccc(F)cc1 (stereo not given) | inactive: -20.2% |
| CCCN(CCC)C(=O)Cn1c(=O)n(-c2ccc(Cl)c(Cl)c2)c(=O)c2c(C)c(C(=O)N(C)C)sc21 | inactive: -5.38% |
| CCOc1ccc(OCC)c(NC(=O)C2CCCN(S(=O)(=O)c3ccc(C)cc3)C2)c1 (stereo not given) | inactive: -14.3% |
| CCOc1ccc(-c2nnc(SCC(=O)N(CC)c3cccc(C)c3)o2)cc1 | inactive: -15% |
| O=C(Cn1c(=O)n(-c2ccccc2Cl)c(=O)c2sc3ccccc3c21)NC1CCCC1 | inactive: -18.4% |
| Cc1ccn2c(Nc3ccc4c(c3)OCCO4)c(-c3ccc(N(C)C)cc3)nc2c1 | inactive: 57.9% |
| O=C(O)CCC(=O)c1ccc(-c2ccccc2)cc1 | inactive: 4.9% |
| COc1ccccc1CNC(=O)CSc1cc(C)[nH]c(=O)n1 | inactive: -4.69% |
| COc1ccc(-c2c(C)nn3c(N4CCN(c5cc(Cl)ccc5C)CC4)cc(C)nc23)cc1OC | inactive: -1.16% |
| COCCCNC(=O)C1CCN(c2nc3ccc(Cl)cc3[nH]2)CC1 | inactive: 13.6% |
| CC1=C(c2ccc(C(C)C)cc2)S(=O)(=O)NC1=NCc1ccc(Cl)cc1 | inactive: -24.6% |
| CCOC(=O)c1ccccc1NC(=O)c1nn(-c2ccc(OC)c(Cl)c2)c(=O)c2c1c1ccccc1n2C | inactive: -1.54% |
| Cc1ccc(CNC(=O)CCCc2nnc3n(CC(C)C)c(=O)c4sccc4n23)cc1 | inactive: -4.3% |
| CCc1ccc2occ(CC(=O)Nc3ccc(C)c(C)c3)c2c1 | inactive: -20.2% |
| Cc1sc2ncn(CC(=O)N3CCN(c4ccccc4)CC3)c(=O)c2c1S(=O)(=O)N1CCC(C)CC1 | inactive: -32% |
| O=c1c2nncn2ccn1-c1ccc(F)c(F)c1 | inactive: -7.29% |
| O=C(c1cc2cc3ccc(Cl)cc3nc2o1)N1CCN(c2cccc(Cl)c2)CC1 | inactive: 5.11% |
| O=C(CN1C(=O)CSc2ccc(S(=O)(=O)N3CCCC3)cc21)NCc1ccc(F)cc1Cl | inactive: -9.18% |
| Cc1cccc(NC(=O)N2CC=C(c3c[nH]c4ccccc34)CC2)c1C | inactive: -23.9% |
| CCc1cccc(C)c1NC(=O)Cn1ncc2c3ccccc3n(Cc3ccccc3)c2c1=O | inactive: 11% |
| COc1ccc(-c2cn3nc(SCC(=O)Nc4cc(C)cc(C)c4)ccc3n2)cc1 | inactive: 35.8% |
| Cc1ccc(Cl)cc1Nc1nn2c(=O)c3ccc(C(=O)NC4CCCCC4)cc3nc2s1 | inactive: -4.21% |
| CCCSc1ncnc2c1c(-c1ccccc1)cn2-c1ccccc1OC | inactive: -12.3% |
| COc1ccc(OC)c(NC(=O)CS(=O)(=O)Cc2nc(-c3ccc(C)cc3)oc2C)c1 | inactive: -17.9% |

| SMILES | activity change, negative = inhibition |
| --- | --- |
| CN1CCN2c3ccccc3Cc3ccccc3C2C1 (stereo not given) | inactive |
| CCOc1ccc2c(c1)c(=O)c(S(=O)(=O)c1ccc(CC)cc1)cn2Cc1cccc(Cl)c1 | inactive: -12.9% |
| CCCCOC(=O)c1ccc(Nc2nc3ccc(C(=O)c4ccccc4)cc3n3cnnc23)cc1 | inactive: 0.151% |
| CCOc1ccc(OCC)c(NC(=O)c2cc(-c3cccs3)nc3ccccc23)c1 | inactive: 3.19% |
| O=c1c2sccc2n(Cc2cc(=O)n3cc(Cl)ccc3n2)c(=O)n1-c1ccccc1 | inactive: -10.4% |
| O=c1c(N2CCN(c3cccc(Cl)c3)CC2)csc2ccc(Cl)cc12 | inactive: 17.2% |
| CCC(C)NC(=O)c1cn(CC)c2ccc(S(=O)(=O)N3CCc4ccccc4C3)cc2c1=O (stereo not given) | inactive: -25.1% |
| Cc1ccc(CCNC(=O)c2ccc3c(c2)N(Cc2ccc(F)cc2)CCS3)cc1 | inactive: -16.5% |
| Cc1cc(C)c(NC(=O)Cn2c(=O)n(CC(=O)NCCc3ccccc3)c(=O)c3ccccc32)c(C)c1 | inactive: -4.68% |
| O=C(NC1CCCCCC1)c1ccc(CS(=O)c2cccc(Cl)c2)o1 (stereo not given) | inactive: -20.6% |
| CCCCc1ncc(/C=C(\Cc2cccs2)C(=O)O)n1Cc1ccc(C(=O)O)cc1 | inactive: 0% |
| Cc1cc(N2CCC(C)CC2)nc2ccc(NC(=O)CCC(=O)N3CCN(c4ccccc4F)CC3)cc12 | inactive: -18.8% |
| Cc1cccc(-n2nnc(-c3nc(-c4cccs4)no3)c2N)c1 | inactive: 62.2% |
| Cc1ccc(C)c(CNC(=O)CN2C(=O)CSc3ccc(S(=O)(=O)N(C)C)cc32)c1 | inactive: -12.9% |
| O=C1NC2CCCCN2C12CCN(CCCN1c3ccccc3CCc3ccc(Cl)cc31)CC2 (stereo not given) | inactive: -15.3% |
| CCc1ccc(NC(=O)Cn2c(=O)n(CCc3ccccc3)c(=O)c3sc4ccccc4c32)cc1 | inactive: -2.15% |
| CC(=O)c1cccc(N2C(=O)CN(S(C)(=O)=O)CC2(C)C(=O)NC2CCCC2)c1 (stereo not given) | inactive: 12.9% |
| CCn1c(=O)c2cc(C(=O)NCCc3ccc(Cl)cc3)sc2c2ccccc21 | inactive: 6.22% |
| CCn1c(=O)c2sccc2n2c(CCC(=O)Nc3ccc(C(C)C)cc3)nnc12 | inactive: -8.47% |
| Cc1ccc(N(C)C(=O)C2CCN(S(=O)(=O)c3cn(C)cn3)CC2)cc1 | inactive: -13.9% |
| COc1ccc(OCC(=O)NC(Cc2c[nH]c3ccccc23)C(=O)O)cc1 (stereo not given) | inactive: -6.42% |
| CC1(COc2ccc(CC3SC(=O)NC3=O)cc2)CCCCC1 (stereo not given) | inactive: 17.4% |
| CCc1nnc(SC(CC)C(=O)Nc2cc(C)ccc2C)c2cc3occc3n12 (stereo not given) | inactive: -5.39% |
| COc1cc(C2c3c(oc4ccccc4c3=O)C(=O)N2Cc2ccc(C)cc2)ccc1O (stereo not given) | inactive: -9% |

| SMILES | activity change, negative = inhibition |
| --- | --- |
| CC1CCN(CCCNC(=O)CN2C(=O)CSc3ccc(S(=O)(=O)N4CCOCC4)cc32)CC1 | inactive: -8.76% |
| COc1ccc(NC(=O)c2cc3c(=O)n(Cc4cccnc4)ccc3nc2C)c(OC)c1 | inactive: -1.77% |
| CN(C)CCc1c[nH]c2ccc(CS(=O)(=O)N3CCCC3)cc12 | inactive |
| Cc1ccc2nc3c(cc(C(=O)NCc4ccco4)c(=N)n3C(C)C)c(=O)n2c1 | inactive: -7.6% |
| O=C(Nc1ccc(N2CCOCC2)c(C(=O)O)c1)c1ccc(Br)cc1 | inactive: -2.37% |
| Cc1cccc(CN2C(=O)c3ccccc3S(=O)(=O)c3ccc(C(=O)NC4CCCCC4)cc32)c1 | inactive: -7.83% |
| Cc1cccc2c(=O)cc(CSc3ccccc3NC(=O)C(C)(C)C)[nH]c12 | inactive: -1.34% |
| CCOC(=O)c1cc(S(=O)(=O)NCc2ccc(OC)cc2)[nH]n1 | inactive: -25.4% |
| CCCC(=O)Nc1ccccc1C(=O)OCc1cc(=O)n2nc(C(C)C)sc2n1 | inactive: -11.3% |
| CCC(=O)N1CCCc2cc(S(=O)(=O)N3CCC(C(=O)Nc4ccc(C#N)cc4)CC3)ccc21 | inactive: -22.6% |
| CC(=O)c1cccc(NC(=O)Cn2cc(C(=O)c3cccc(Cl)c3)c(=O)c3ccc(C)nc32)c1 | inactive: -23.4% |
| COc1ccc(OC)c(S(=O)(=O)N2CCN(Cc3nc4ccc(C)cc4o3)CC2)c1 | inactive: -0.463% |
| Cc1cc(C)cc(NC(=O)N2CCN(C(=O)c3nsc4ccccc34)CC2)c1 | inactive: -9.32% |
| COC(=O)c1ccc(-n2c(/C=C/c3cc(OC)c(OC)c(OC)c3)nc3cc(Cl)ccc3c2=O)cc1 | inactive: -28.1% |
| Cc1ccc(CNC(=O)CCc2nc3cccnc3n2Cc2ccccc2)cc1 | inactive: -13.7% |
| CC(=O)Nc1ccc(NC(=O)C(NS(=O)(=O)c2ccc(Br)s2)c2ccccc2)cc1 (stereo not given) | inactive: -4.17% |
| COc1cc(NC(=O)Cn2nnnc2-c2ccccc2F)cc(OC)c1OC | inactive: 1.98% |
| Cc1ccc(Cn2cc(S(=O)(=O)c3ccc(Cl)cc3)c(=O)c3cc4c(cc32)OCO4)cc1 | inactive: -26.7% |
| O=C1CC(=O)Nc2cc(S(=O)(=O)Nc3ccc(F)cc3Cl)ccc2N1 | inactive: -6.03% |
| CCOc1ccc2nc(N(Cc3cccnc3)C(C)=O)sc2c1 | inactive: -2.46% |
| Cc1ccc(OCCSc2nc3ccc(NC(=O)c4ccco4)cc3s2)cc1 | inactive: -10.7% |
| COc1ccc(-c2cc3ccc(O)c(CN4CCCCC4C)c3oc2=O)cc1OC (stereo not given) | inactive: -4.01% |
| CC(=O)N1CCc2cc(S(=O)(=O)NC(Cc3ccccc3)C(=O)NCc3ccccc3Cl)ccc21 (stereo not given) | inactive: -11.1% |
| CCCc1ccc(OC(C)c2nc(-c3ccc(-n4cccc4)cc3)no2)cc1 (stereo not given) | inactive: -0.687% |

| SMILES | activity change, negative = inhibition |
| --- | --- |
| CCOC(=O)C1CCN(C(=O)CSc2n[nH]c(-c3ccc(OC)cc3)n2)CC1 | inactive: 5.34% |
| Cn1c(=O)n(C)c2cc(N3CCOCC3)c(NS(=O)(=O)c3ccc(Cl)cc3)cc21 | inactive: -9.84% |
| Cc1ccc(-n2c(=O)c3c(cnn3C)n(CC(=O)Nc3cccc(C)c3)c2=O)cc1 | inactive: 8.8% |
| Cc1cc(=O)n(Cc2c(F)cccc2Cl)c2c1c(C)nn2C | inactive: 0% |
| CCOC(=O)Cn1c(CN2CCN(c3ccc(OC)cc3)CC2)nc2c1c(=O)[nH]c(=O)n2C | inactive: -3.04% |
| COc1ccc(CCNC(=O)Cn2c(-c3ccc(F)cc3)cc(C(C)=O)c2C)cc1OC | inactive: -23.5% |
| Cc1ccc(C)c(OC(=O)CSc2nnc(-c3cccs3)o2)c1 | inactive: 4.32% |
| COc1ccc2c(c1)CC(C(=O)NCCc1ccc(S(N)(=O)=O)cc1)CO2 (stereo not given) | inactive: -12.7% |
| CCCC(=O)Nc1cc(-c2nnc3c4ccccc4c(C)nn23)ccc1C | inactive: 13.4% |
| COc1ccc(-n2c(=O)c3c(c4cc(OC)ccc4n3C)n(CC(=O)N3CCCC3)c2=O)cc1 | inactive: -3.76% |
| CCc1ccc(NC(=O)CCCc2nnc3n(CCCOC)c(=O)c4sccc4n23)cc1 | inactive: -4.76% |
| Cc1ccc(NC(=O)C(C)Sc2nc3c(c(=O)[nH]2)CCCC3)cc1Cl (stereo not given) | inactive: -7.08% |
| O=C(Cn1cnc2c(nc3n2CCCCC3)c1=O)Nc1cccc(C(F)(F)F)c1 | inactive: -12.4% |
| CCOc1ccc(/C=C/c2nc(C#N)c(NCCCN(C)C)o2)cc1 | inactive: 4.82% |
| COC(=O)c1ccccc1NC(=O)Cn1c(=O)n(CCCC(=O)NCc2ccccc2Cl)c(=O)c2ccccc21 | inactive: -12.6% |
| O=C(COc1ccccc1Cl)N(Cc1cccc(F)c1)C1CCS(=O)(=O)C1 (stereo not given) | inactive: -8.79% |
| Cc1ccc(Cc2nc3ccccc3nc2SCC(=O)NCc2ccccc2Cl)cc1 | inactive: -1.07% |
| CCOC(=O)c1c(NC(=O)COc2ccc(C(C)(C)C)cc2)sc2c1CCCC2 | inactive: 0% |
| CCc1cccc(CC)c1NC(=O)Cn1nnc2sc3c(c2c1=O)CCCC3 | inactive: -16.4% |
| Cc1ccc(NC(=O)c2c(C)nn(-c3ccccc3)c2-n2cccc2)c(Cl)c1 | inactive: -13.7% |
| COCCn1c(SCC(=O)c2ccc(F)cc2)nc2cc(C(=O)NC3CCCC3)ccc2c1=O | inactive: -7.9% |
| O=C1CC(c2ccc(F)cc2F)c2cc3c(cc2N1)OCO3 (stereo not given) | inactive: -21.8% |
| COc1ccc(OC)c(NC(=O)Cn2c(=O)n(-c3ccc(Cl)cc3)c(=O)c3c(C)c(C)sc32)c1 | inactive: -15.4% |
